# Results taken from the BET-seq Pho4 binding data (Le et al. 2018).
# This is one part of the list. Values were computed here from the reads of four pooled replicates and scatter widely.
# Biological target: T1, Pho4 (S. cerevisiae) (UniProt P07270)
# T1 sequence: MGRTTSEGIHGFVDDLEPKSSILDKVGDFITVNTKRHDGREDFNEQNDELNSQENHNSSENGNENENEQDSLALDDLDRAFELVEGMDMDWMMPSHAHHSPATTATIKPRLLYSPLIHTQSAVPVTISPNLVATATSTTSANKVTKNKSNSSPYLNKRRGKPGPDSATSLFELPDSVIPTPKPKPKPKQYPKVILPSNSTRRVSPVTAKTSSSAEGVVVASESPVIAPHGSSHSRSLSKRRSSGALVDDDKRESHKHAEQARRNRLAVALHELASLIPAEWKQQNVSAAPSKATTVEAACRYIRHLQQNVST
# Experiment: relative binding free energy (BET-seq); higher = weaker binding
# Conditions: reference: library average
row,Sequence,relative binding free energy [kcal/mol]
1,ATGGTCACGTGGAAAT,0.13
2,TATGCCACGTGGTGGA,-0.17
3,GGAGGCACGTGTTCTG,-0.19
4,CGATTCACGTGTTAGG,0.1
5,GGTAGCACGTGGGCTC,-0.15
6,GAGGCCACGTGTGCGG,0.02
7,TTATACACGTGTGTAG,0.05
8,TTGATCACGTGGTAGA,0.17
9,TTTGGCACGTGTAGGG,-0.01
10,ACAGGCACGTGGTGGC,-0.01
11,CTCGCCACGTGGGGGG,-0.23
12,AGGTACACGTGCATGT,0.03
13,ATTGTCACGTGGGTAG,0.01
14,AGTCGCACGTGGAGGC,0.02
15,AGTTTCACGTGAAGGA,0.44
16,GTGTTCACGTGGACGG,0.23
17,TTTAGCACGTGTCAGT,-0.26
18,ATGGTCACGTGGTGCA,0.04
19,TTGGTCACGTGAGAAA,0.22
20,AGGGTCACGTGCGCAT,-0.02
21,GTAAGCACGTGGATGC,0
22,TGGCACACGTGGGAGA,0.18
23,ATCGGCACGTGGTATG,-0.28

row,Sequence,relative binding free energy [kcal/mol]
1,GTTATCACGTGTGTAT,0.1
2,TGGTGCACGTGTATTT,0.14
3,TGGTCCACGTGAGGCG,0.24
4,TTTGTCACGTGACTCG,0.24
5,GTGTGCACGTGGAGGA,0.14
6,CTAGTCACGTGGGCAG,-0.01
7,AGCTACACGTGTGGTA,0.15
8,AAGTGCACGTGGGGGC,-0.14
9,GGGTCCACGTGACGGG,0.12
10,TATTACACGTGGGTTG,0
11,GAGGTCACGTGGTCAG,-0.01
12,CGGTACACGTGCAGGT,0.09
13,GGTGACACGTGGGTCT,0.02
14,GGCGGCACGTGTTGGC,-0.05
15,CGATGCACGTGTGTGG,-0.01
16,GGGGGCACGTGAAGAG,0.27
17,GAGCTCACGTGAGGAG,0.52
18,TGGAACACGTGTTAAG,0.2
19,TTAATCACGTGCTGGG,0.1
20,CCAGGCACGTGTAGTG,-0.01
21,TTTAACACGTGTTCGG,-0.03
22,TACCTCACGTGGGGTT,0.24
23,GGGTGCACGTGTGAGT,0.19

row,Sequence,relative binding free energy [kcal/mol]
1,GTGTGCACGTGGCAAG,-0.08
2,AAGGGCACGTGTGCGT,-0.2
3,TCTGGCACGTGGTCGT,-0.26
4,AGGTGCACGTGACGGT,0.05
5,GAAGGCACGTGGGAAG,-0.14
6,GGTGGCACGTGGAGTG,-0.05
7,ATTGACACGTGTTTCT,0.02
8,ATTGCCACGTGAGGTG,0.28
9,GTGCGCACGTGGTGCT,-0.06
10,GGGGGCACGTGAGGCA,0.03
11,TTAGGCACGTGAGGTT,0.05
12,GTTAACACGTGTGGTT,0.17
13,TAAGTCACGTGTTTGA,0.14
14,TTGCGCACGTGGAGCT,-0.11
15,GTTCGCACGTGGGGCG,-0.17
16,TGTTTCACGTGTGACC,0.35
17,GCTATCACGTGTGTGT,0.27
18,CGATTCACGTGGCAGG,0.38
19,ATTTTCACGTGGCGTA,0.05
20,AGATGCACGTGGAGGA,-0.03
21,TTGTACACGTGTTGAC,0.05
22,TGAGTCACGTGATTGC,0.12
23,TGCAGCACGTGTGTAT,-0.06

row,Sequence,relative binding free energy [kcal/mol]
1,TTCTTCACGTGTGATT,0.3
2,GTAGTCACGTGCCGGG,0.11
3,TTGGGCACGTGCTTCG,-0.1
4,GGGGGCACGTGTAACG,-0.02
5,TTTAACACGTGAACGG,0.21
6,CAATACACGTGTATGT,0.14
7,GTTGCCACGTGTGTTC,0.03
8,GTGTCCACGTGTCGGT,0.04
9,GGATTCACGTGGGGCG,0.1
10,TGCTGCACGTGTGGGA,0.25
11,TACTTCACGTGGTTGA,0.22
12,AAGTTCACGTGGATGT,0.23
13,TCAAGCACGTGGGTGG,-0.21
14,GGAGTCACGTGATGAT,0.32
15,AAGTTCACGTGGTCAG,0.25
16,AGTGGCACGTGCTCGT,-0.28
17,ATTGTCACGTGTGTCC,0.18
18,ATTTTCACGTGAAAGG,0.36
19,CTAGGCACGTGCGGTA,0.01
20,AGCGTCACGTGAAGTG,0.3
21,AGGTTCACGTGGAAGG,0.29
22,ATGGTCACGTGTAATG,0.28
23,AATTGCACGTGTGAGA,0.09

row,Sequence,relative binding free energy [kcal/mol]
1,TTTTACACGTGTGATT,0.21
2,GCTTTCACGTGTTATT,0.15
3,GCTGGCACGTGGTGGT,-0.05
4,GTTTGCACGTGGTTCT,0.1
5,TTTGACACGTGAAGTG,0.21
6,TTATACACGTGTGGTC,0.02
7,TAGTGCACGTGATGGA,0.08
8,AAATTCACGTGAAAGT,0.41
9,AATTGCACGTGATGTG,0.12
10,TGGATCACGTGCGGTA,0.12
11,TTTGGCACGTGTTGGG,-0.04
12,GTGTCCACGTGGGAAT,-0.01
13,ATTGACACGTGATCTG,0.1
14,TAGCGCACGTGCGTGG,0
15,TTGGGCACGTGATGAT,-0.05
16,GAGCACACGTGTTGGT,0.14
17,TGCCACACGTGGGTTT,-0.03
18,AGGATCACGTGCGGTG,0.19
19,TGGTGCACGTGCAGGC,-0.27
20,TTACTCACGTGATGGT,0.22
21,AAGAGCACGTGGAGTT,-0.06
22,GGTTGCACGTGATTTT,0.28
23,GATTTCACGTGGTAGT,0.26
